These results are taken from PubChem BioAssay AID1159614 (National Center for Advancing Translational Sciences (NCATS), 2016).

Hit rate of the full screen: of about 45,000 compounds, about 65 (0.1%) were called active. Calls follow the shape of the dose curve; as a rule, active = well fitted activation curve with a large enough effect; inconclusive = small, poorly fitted or top-dose-only effect; inactive = no such curve, though single readings can be large or run the other way. The list shows a part of the results.

For this test, the target named is Galactocerebrosidase (Homo sapiens) (UniProt P54803). The experiment in a line: A Novel Cell-Based Assay to Identify Small Molecules for B -Galactocerebrosidase. Also: 0% is about no effect; nearly all actives have a fitted effect of over 65% in size. The note with it: 145M-Twi-hGALC-G270D cells (Twitcher mouse brain line with human GALC G270D), HMU-beta-Gal fluorescence, 48 h; series mostly up to 57.5 µM; activation: at the top concentration. The gist of the method: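 Live 145M-Twi cells (Twitcher mouse brain-derived, GALC-null) stably expressing human GALC-G270D, with a wild-type GALC line, were compound-treated. Residual GALC activity was then read as fluorescence from 0.1 mM final HMU-β-gal at pH 5.2; higher signal means activation.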
UniProt P54803, sequence (P54803 whole entry, looked up): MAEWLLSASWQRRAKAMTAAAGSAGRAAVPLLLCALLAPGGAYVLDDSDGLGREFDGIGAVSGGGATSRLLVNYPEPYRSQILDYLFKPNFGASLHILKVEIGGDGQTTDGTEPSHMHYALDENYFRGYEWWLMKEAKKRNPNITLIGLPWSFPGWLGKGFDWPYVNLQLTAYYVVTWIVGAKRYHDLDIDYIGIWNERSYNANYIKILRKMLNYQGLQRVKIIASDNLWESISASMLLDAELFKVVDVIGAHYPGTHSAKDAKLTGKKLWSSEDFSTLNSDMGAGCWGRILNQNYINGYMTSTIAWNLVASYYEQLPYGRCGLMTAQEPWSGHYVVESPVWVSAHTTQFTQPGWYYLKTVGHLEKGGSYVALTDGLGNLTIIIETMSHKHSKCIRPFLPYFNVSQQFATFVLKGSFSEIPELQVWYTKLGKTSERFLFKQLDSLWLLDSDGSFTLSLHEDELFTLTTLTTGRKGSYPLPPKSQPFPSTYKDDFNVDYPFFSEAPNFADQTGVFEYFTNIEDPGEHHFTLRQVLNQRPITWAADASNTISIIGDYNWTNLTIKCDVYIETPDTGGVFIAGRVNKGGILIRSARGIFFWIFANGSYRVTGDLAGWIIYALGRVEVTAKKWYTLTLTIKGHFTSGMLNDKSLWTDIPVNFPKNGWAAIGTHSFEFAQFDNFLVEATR
Take `CCCCN(CCN(CCCC)C(=O)N1CCOCC1)C(=O)N1CCOCC1`: the “activation” value was inactive: 45.3%. With `Cc1ccc(CNC(=O)C(=O)NCC(c2cccnc2)N2CCN(c3ccccc3F)CC2)cc1` (stereo not drawn) the figure was inactive: -10.4%.

As to `Cc1ccsc1CN(C(=O)c1oc2ccccc2c1C)C1CCS(=O)(=O)C1` (stereo not drawn), the “activation” value is inactive: -9.5%.

For the compound `Cc1ccc(C)c(Cn2c3ccccc3c3cnn(CC(=O)NC(C)c4ccccc4)c(=O)c32)c1` (stereo not drawn), the “activation” value was inactive: -3.24%. As for `COc1ccccc1CC(=O)Nc1ccc2nc(N3CCC(C)CC3)cc(C)c2c1`, the figure is inactive: -15.2%; as for `CS(=O)(=O)N1CCc2cc(C(=O)Nc3cccc(F)c3)ccc21`, inactive: -17.3%. As for `CCCCN1C(=O)C(O)(c2c(C)[nH]c3ccccc23)c2ccccc21` (stereo not drawn), the figure is inactive: -19.5%; as for `CCCOc1ccccc1C1Oc2nc(SC)nnc2-c2ccccc2N1C(C)=O` (stereo not drawn), inactive: -15.9%. As for `COCCNC(=O)Cn1ncc2c(C)n(Cc3ccc(C)cc3)c(C)c2c1=O`, the figure is inactive: -6.55%; as for `CCOC(=O)c1ccc(-c2ccc(/C=C(\C#N)C(=O)Nc3ccc(C)cc3OC)o2)cc1`, inactive: -4.68%; as for `N[C@@H](COP(=O)(O)O)C(=O)O`, inactive: -8.07% [at 23.8 µM]. For the compound `CCCNC(=O)CN1CCN(c2ncc(NC(=O)c3ccc(Cl)cc3)cc2C(=O)O)CC1`, the “activation” value is inactive: -8.1%. Consider `CC(C)(C)C(=O)OC1=CN(Cc2ccccc2)S(=O)(=O)c2ccccc21`, for which the “activation” value is inactive: -5.94%. With `CSc1ccc(C2c3c(oc4ccccc4c3=O)C(=O)N2CCCN2CCOCC2)cc1` (stereo not drawn), the “activation” value was inactive: -21.2%. With `CCOc1ccc(C(=O)c2cn(Cc3ccc(F)cc3)c3ccc(F)cc3c2=O)cc1` the figure was inactive: -4.33%; with `Cc1ccc(C)c(CNC(=O)c2cnc3sc(N4CCCC4)nn3c2=O)c1`, inactive: -10.9%; with `Cc1ccc(CN(Cc2ccco2)C(=O)c2oc3ccc(C)cc3c2C)cc1`, inactive: -22.6%. With `Cc1cccc(-n2ncc3c(N4CCCCCC4)ncnc32)c1` the figure was inactive: -16.2%; with `Cc1cccc(N(C)C(=S)Oc2ccc3ccccc3c2)c1`, inactive: -12.9%. As for `O=S(=O)(c1ccccc1)c1nc(-c2ccc(F)cc2)oc1N1CCCCCC1`, the figure is inactive: -15.9%. As for `CCc1ccc(NC(=O)CSc2nc3ncccc3[nH]2)cc1`, the “activation” value was inactive: -8.38%. Turning to `CCOc1ccc(/C=C/C(=O)Nc2sc3c(c2C(=O)OC)CCC3)cc1`, the “activation” value is inactive: 19.4%. As for `O=C(Nc1ccc2oc(-c3cccc(Cl)c3Cl)nc2c1)c1cccc(Br)c1`, the figure is inactive: -21.7%; as for `COc1cn(CC(=O)Nc2cc(C)ccc2C)c(CN2CCCCC2)cc1=O`, inactive: -9.74%. As for `O=[N+]([O-])c1cc(-c2nc(-c3ccncc3)no2)ccc1NCc1ccccc1`, the figure is inactive: 7.76%; as for `O=C(c1cn(CCOc2ccc(Cl)cc2)c2ccccc12)C1CCCCC1`, inactive: -18.4%.

Turning to `CC(=O)Nc1cccc(NC(=O)CSc2cn(CC(=O)N3CCCCCC3)c3ccccc23)c1`, the “activation” value is inactive: -1.6%. With `CNC(=O)C1CCC(Cn2c(=O)c3sccc3n(CC(=O)Nc3cc(F)ccc3F)c2=O)CC1` (stereo not drawn) the figure was inactive: -9.28%. Take `CCOC(=O)c1cccc(NC(=O)N2CCC(CN3CCCCCC3)CC2)c1`: the “activation” value was inactive: -1.48%. As for `CC(=O)c1c(C)oc2ccc(N(C(=O)c3ccncc3)S(=O)(=O)c3ccc(C)cc3C)cc12`, the figure is inactive: -6.44%; as for `COc1ccccc1NC(=O)C1=C(C)Nc2nc(SCc3ccccc3Cl)nn2C1c1ccncc1` (stereo not drawn), inactive: -1.08%; as for `CCN(CC)S(=O)(=O)c1ccc(C(=O)NCCSc2c(-c3ccc(OC)cc3)[nH]c3ccccc23)cc1`, inactive: -7.74%. Turning to `COc1ccc(NC(=O)CCSc2nc(-c3ccco3)cc(C(F)(F)F)n2)cc1OC`, the “activation” value is inactive: -15.5%. With `CCc1ccc(OCCSc2nc(-c3cccc(C)c3)nc3cc(=O)[nH]n23)cc1` the figure was inactive: -15.2%. As for `O=C(O)c1cccnc1`, the figure is inactive: -4.77%. Turning to `O=C(CN1C(=O)C2(SCC(=O)N2c2ccc(F)cc2)c2ccccc21)NCCc1ccccc1` (stereo not drawn), the “activation” value was inactive: -15.6%. In the case of `COc1ccc(NCc2nnc3n2CCCCC3)c(OC)c1`, the “activation” value is inactive: -5.98%. As for `CCOc1ccc(C(=O)c2cn(CC(=O)Nc3cc(OC)ccc3OC)c3cc(OC)c(OC)cc3c2=O)cc1`, the figure is inactive: -2.39%; as for `COc1ccc(-c2ccc(=O)n(CC(=O)NCCc3ccccc3)n2)cc1`, inactive: 3.91%; as for `CCOC(=O)C1CCN(C(c2ccc(F)cc2)c2sc3nc(-c4ccco4)nn3c2O)CC1` (stereo not drawn), inactive: -13.1%. With `CCOc1cc(CNCCSc2nnnn2-c2ccccc2)ccc1OC` the figure was inactive: -11.6%; with `Cc1cc(C)c(NC(=O)C(C)n2nnc3sc(-c4ccccc4)cc3c2=O)c(C)c1` (stereo not drawn), inactive: -14.6%; with `Cc1cc(C)cc(Nc2cc(C(=O)NCc3ccccc3)c3ccccc3n2)c1`, inactive: 7.05%.

On to `CCOC(=O)c1cc(-c2ccc(F)cc2)n(CCC(=O)NC2CCCCC2)c1C`, for which the “activation” value was inactive: -1.12%. With `CCCCc1oc2ccccc2c1C(=O)c1cc(I)c(OCCN(CC)CC)c(I)c1` the figure was inactive: -1.78%; with `Cc1cc(C)cc(Nc2nc3c(S(=O)(=O)c4cccc(Cl)c4)nnn3c3ccsc23)c1`, inactive: -17.5%; with `CCOC(=O)c1cccc(NC(=O)c2cc3cc4ccc(C)cc4nc3s2)c1`, inactive: -2%. With `CSc1ccc(CCNC(=O)c2cc3c(-c4ccccc4F)nn(C)c3s2)cc1` the figure was inactive: -13.8%.
